Laboratory results reported in the supplement of paper PMC11417369.
± gives the standard deviation of the averaged measurements. This is one part of the list.

system: PfAP2-I AP2 domain 3 (GST-tagged); assay: gcPBM binding intensity (ln(normalized median fluorescence intensity)); higher = stronger DNA binding
In short: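 In this array assay, P. falciparum DNA-binding domains with a GST tag, expressed in E. coli, were applied for 1 h to primer-extended double-stranded 36-bp intergenic genomic probes and negative controls on an Agilent 4 × 180k array. Bound protein was visualised with Alexa488 anti-GST antibody at 488 nm. Binding intensity is the highest Masliner-normalised natural-log median intensity across replicate spots of either probe orientation.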

| Sequence | gcPBM binding intensity (ln) |
| --- | --- |
| TATATATATTTTAAATGTACTTATAAATTACCACTT [XGTACX_site5673] | 8.11 ± 0.34 |
| GTATATATATATTTATGTACTTACCTACATAATTAT [XGTACX_site4435] | 7.81 ± 0.52 |
| TAAATAAATTTGCACTGTACGCAAAAAAAAAAAAGA [XGTACX_site8781] | 10.2 ± 0.6 |
| TGAAAAAAAAAATGCACACGCATACATATAATATGT [CACACA_site641] | 8.37 ± 0.49 |
| AAACATAAATATGAGAGTACAAAAAATATTATGAAT [XGTACX_site151] | 7.96 ± 0.69 |
| TTATAATATATTACAAGTTCATTCATATAATATGTT [CACACA_negctrl_site1695] | 7.43 ± 0.52 |
| ATCTCTTAAATTTTACGTACTTATTTTATCTTCTTA [XGTACX_site8877] | 8.34 ± 0.3 |
| AAAAATAAAATATATATATATATATATATATATATA [CACACA_negctrl_site58] | 9.31 ± 0.64 |
| AATAAATACATACATACATGCATACATATATCTCAA [TGCATGCA_site1040] | 8.09 ± 0.42 |
| TATTTTTATATATATACACACTTACAGATATATATT [CACACA_site5905] | 7.79 ± 0.64 |
| ATATGTAAAATGAAGATACATACATACATACATACA [CACACA_negctrl_site715] | 8.8 ± 0.41 |
| ATATTATATATATGATGTACTAAATATATTATTATG [XGTACX_site1703] | 7.71 ± 0.18 |
| ATGTTATAAAATATATGTACATATTTATATAAAATA [XGTACX_site5766] | 7.78 ± 0.26 |
| TATATAAAAAGTAATTGTACATATATATATATATAT [XGTACX_site7953] | 9.35 ± 0.45 |
| ATATATTTATATAAATGTACACGTGAATATATAATA [XGTACX_site1166] | 8.08 ± 0.57 |
| TTTATATTCTTTTTTTAACACACAAAAAAAATAAAA [CACACA_site8574] | 7.88 ± 0.29 |
| TCTATTAATGAATATACACACATTATATATATATAT [CACACA_site5410] | 9.14 ± 0.28 |
| TATTTTATATTATCATGTACAAAAAAAAAGAAAAGA [XGTACX_site5379] | 7.9 ± 0.33 |
| ATAAATAATTAGAATTGTACAAAAATTATATATATG [XGTACX_site5107] | 7.67 ± 0.34 |

| Sequence | gcPBM binding intensity (ln) |
| --- | --- |
| AAAAGGAACGGACACACACACATATATATATATATA [CACACA_site5894] | 9.31 ± 0.2 |
| TATGCAAATTAATAATGTACGAAATATTTATAATTT [XGTACX_site2324] | 7.75 ± 0.57 |
| AATAAATTAGAAGGATGTACTTTGTTTAATATAGAG [XGTACX_site1943] | 7.83 ± 0.37 |
| TAATATAATCTGAGTGCACACAAATAAATAAACATA [CACACA_site8032] | 10.5 ± 0.14 |
| AGGTTATATATGAACAAAAATAAAATATTCATAGGC [TGCATGCA_negctrl_site46] | 7.67 ± 0.86 |
| AACAAAATAAAACACACACACAAATGTACATATATA [CACACA_site2424] | 8.05 ± 0.14 |
| TAGAAGCATCATTTTACACACATGCAAATGTAAACT [CACACA_site6973] | 7.91 ± 0.64 |
| ATTTTGTATTGACGCTGTACAAACATTAATATAATA [XGTACX_site2496] | 7.77 ± 0.37 |
| TTTTGCGTAGCAACGAGGTTTTTAAAAATGTAACCA [GTGCAC_negctrl_site691] | 7.63 ± 0.67 |
| TTTTTTTTTATTATCATGCACACATTTTTTTTTTTT [CACACA_site2254] | 8.86 ± 0.67 |
| ACATATGAATATTTTTGTACGTATATTGTTATTCTT [XGTACX_site4720] | 7.82 ± 0.57 |
| AAAAAAAAAAAACACACACACACATACAAAATATAT [CACACA_site1448] | 7.86 ± 0.43 |
| AATTATACGAAATAAAACTTAATAGACAAAAAATTA [CACACA_negctrl_site1384] | 7.54 ± 0.63 |
| GTAATTTAAATAACAAGTACTAATGTGGATAAGCAG [XGTACX_site1163] | 8.59 ± 0.35 |
| GTATATTTAAATAAAAGTACGTAAAGATATATTTAA [XGTACX_site8087] | 7.96 ± 0.23 |
| ATAATATGCAATATTACACACAATTCATCATTTTTT [CACACA_site7477] | 7.87 ± 0.76 |
| AATTATATACCATGCACACAAATATTCATACAGGAA [CACACA_site4057] | 8.34 ± 0.41 |
| TTTTCATTCTTATATAAATATTATTTTATATAAAAT [GTGCAC_negctrl_site674] | 7.58 ± 0.42 |
| ATATATGAAAATATATGTACACAACATATAAAATAG [XGTACX_site5132] | 7.99 ± 0.43 |

| Sequence | gcPBM binding intensity (ln) |
| --- | --- |
| AAAAATATATATATATTTCTTCTTTGTTAAAATGTA [CACACA_negctrl_site1459] | 7.42 ± 0.42 |
| GTAGAATCAGTATTCACACATAAATGTATCCAAATG [CACACA_site5395] | 7.62 ± 0.63 |
| ATATATATATATAGAAGTACTCTTATATATTTTATA [XGTACX_site1384] | 9.22 ± 0.26 |
| GATATGGAATATATGTGTACATATATATATATTATA [XGTACX_site1724] | 7.75 ± 0.28 |
| AAAAAAAAAAAAAATACACACACATAAAAAAAAAAA [CACACA_site8555] | 8.24 ± 0.75 |
| CAAATTTTTAAAAATGCATGTTCATCCATCCCATAT [TGCATGCA_site467] | 7.79 ± 0.81 |
| TTTGTATGATCATAAAGTACTAATTTACATTCAGCA [XGTACX_site8596] | 7.54 ± 0.5 |
| ATAATAAACATATATGTACACACATATACATATATA [CACACA_site8924] | 7.97 ± 0.38 |
| AACACACACATATATATATATATATATATATATATA [GTGCAC_negctrl_site573] | 9.25 ± 0.73 |
| TTTTTAATATTGTATGCATGTCGTAATAAAAAATTT [TGCATGCA_site259] | 7.97 ± 0.67 |
| ATATACTATTAACCACATATGTGTGTTAATTTATAT [GTGCAC_negctrl_site315] | 7.82 ± 0.52 |
| TGCTATTTCATATTCTGTACTAAAACAAGATAATAA [XGTACX_site3852] | 7.97 ± 0.3 |
| ATATTAATTATAACTTGTACGTAAAAGGAAAACAAT [XGTACX_site3269] | 8.19 ± 0.42 |
| TTGAACCCCACTAACACACACACGCACGCTCAGAAA [CACACA_site2983] | 8.3 ± 0.62 |
| TAGAAACTATGTAATGCACACCAAAATAAAATTATT [CACACA_site8578] | 10.4 ± 0.33 |
| TTTTAAAAAATAAAATATTATTGAAGTAAAATATGA [CACACA_negctrl_site758] | 7.5 ± 0.53 |
| TTTTGGATACTTCATTTGTCCTGTTTTTTTTTTTTA [CACACA_negctrl_site399] | 7.61 ± 0.68 |
| AAAATATATCAAAACACACTCACATATAATACTTAC [CACACA_site6031] | 7.64 ± 0.64 |
